Patent publication US6646113 (University of Pennsylvania, dated 2003)

Legend:
[1] = target: T1, SMN (human), in vitro translated and 35S-labeled (human, UniProt Q16637); assay: GST beads preincubated with His-SMN, then 35S IVT protein
T1 construct: also called 35[S]SMN

[2] = target: MBP-SMN wild-type fusion, in vitro translated (human, UniProt Q16637); assay: GST pull-down, 35S IVT protein (FIG. 41)
myc-tagged SMNY272C = target: T2, myc-tagged SMNY272C (human, UniProt Q16637); assay: GST pull-down, 35S IVT protein
T2 construct: In vitro translated (35S) or expressed in 293T cells

[3] = target: T3, SIP1 (human), in vitro translated and 35S-labeled (human, UniProt O14893 1-280, limits assumed); assay: GST pull-down, 35S IVT protein
T3 construct: Made in rabbit reticulocyte lysate; also called full-length SIP1; Gemin2
T3 sequence: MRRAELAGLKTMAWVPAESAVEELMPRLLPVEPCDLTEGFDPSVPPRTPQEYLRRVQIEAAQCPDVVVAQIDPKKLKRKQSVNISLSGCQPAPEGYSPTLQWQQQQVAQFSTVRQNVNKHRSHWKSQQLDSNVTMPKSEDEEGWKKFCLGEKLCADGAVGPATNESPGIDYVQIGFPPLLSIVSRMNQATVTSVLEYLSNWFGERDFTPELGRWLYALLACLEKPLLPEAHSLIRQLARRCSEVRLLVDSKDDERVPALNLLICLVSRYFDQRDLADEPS

B1: GST alone (other)
chain: not shown
notes: Negative control on glutathione-Sepharose; also called glutathione S-transferase
binding result [1]: no binding
binding result [2]: no binding
binding result (myc-tagged SMNY272C): no binding
binding result [3]: no binding (tested: 200 mM NaCl)
